{"source": "the RNAGym collection of RNA variant scans (doi:10.7554/elife.90254)", "parents": {"B1": {"name": "LINE1-full (parent)", "chain": "UACGUAGGUGGUUUUCCCCUGAUAGUGCUAAGGGGGCCUGGAAGUUUGGACUGGGCAGAGCUCAACACAGCGUGGCAAAGUGGCUGUGGCUAGACUGCCUCUCUGGAUUCCUCGUCACUCAGCAGGGCAUCUCUGAGAGAAAUGCC"}}, "note": "The source gives no read counts; variants with many changes may rest on few reads."}
{"variants_of": "B1", "assay": "self-cleavage, relative activity (ratio to wild type); higher = more cleavage; in vitro, sequencing; the parent is a self-cleaving ribozyme"}
{"variant": "UACGUAGGUGGUUUUCCCCUGAUAGCGCUAAGGGGGCCUGGAAGUUUGGACUGGGCAGAGCUCAACACAGCGUGGCAAAGUGUCUGUGGCUAGACUGCCUCUCUGGAUUCCUCGUCACUCAGCAGGGCAUUUCUGAAAGAAAUGCC", "note": "[U26C G83U C131U G137A]", "self-cleavage": 1.02}
{"variant": "UACGUAGGUGGUUUUCCCCUGAUAGCGCUAAGGGGGCCUGGAAGUUUGGACUGGGCAGAGCUCAACACAGCGUGGCAAAGUGGCUUUGGCUAGACUGCCUCCCUGGAUUCCUCGUCACUCAGCAGGGCAUCUCUGAGAGAAAUGCC", "note": "[U26C G86U U102C]", "self-cleavage": 0.09}
{"variant": "UACGUAGGUGGUUUUCCCCUGAUAGCGCUAAGGGGGCCUGGAAGUUUGGACUGGGCAGAGCUCAACACAGCGUGGCAAAGUGGCUGUUGCUAGACUGCCUCUCUGGAUUCCUCGUCACUCAGCAGGGCAUCUCUGAGAGAAGUGCC", "note": "[U26C G88U A142G]", "self-cleavage": 0.08}
{"variant": "UACGUAGGUGGUUUUCCCCUGAUAGCGCUAAGGGGGCCUGGAAGUUUGGACUGGGCAGAGCUCAACACAGCGUGGCAAAGUGGCUGUGGCUAGACUACCUCUCUGGAUUCCUCGUCACUCAGCAGGGCAUCUCUGAGAGGAAUGCC", "note": "[U26C G97A A140G]", "self-cleavage": 0.1}
{"variant": "UACGUAGGUGGUUUUCCCCUGAUAGCGCUAAGGGGGCCUGGAAGUUUGGACUGGGCAGAGCUCAACACAGCGUGGCAAAGUGGCUGUGGCUAGACUGCCUCUCUAGAUUCCUCGUCACUCAGCUGGGCAUCUCUGAGAGAAAUGCC", "note": "[U26C G105A A124U]", "self-cleavage": 1.71}
{"variant": "UACGUAGGUGGUUUUCCCCUGAUAGCGCCAAGGGGGCCUGGAAGUUUGGACUGGGCAGAGCUCAACACAGCGUGGCAAAGUGGCUGUGGCUAGACUGCCUCUCUGGAUUCCUCGUCACUCAGCAGGGCAUCUCUGAGAGUAAUGCC", "note": "[U26C U29C A140U]", "self-cleavage": 0}
{"variant": "UACGUAGGUGGUUUUCCCCUGAUAGCGCCAAGGGGGCCUGGAAGUUUGGACUGGGCAGAGCUCAACACAGCGUGGCAAAGUGGCUGUGGCUAGACUGCCUCUCUGGAUUCCUCGUCACUCAGCAGGGCAUCUCUGAGAGAAGUGCC", "note": "[U26C U29C A142G]", "self-cleavage": 1.53}
{"variant": "UACGUAGGUGGUUUUCCCCUGAUAGCGCCAAGGGGGCUUGGAAGUUUGGACUGGGCAGAGCUCAACACAGCGUGGCAAAGUGGCAGUGGCUAGACUGCCUCUCUGGAUUCCUCGUCACUCAGCAGGGCAUCUCUGAGAGAAAUGCC", "note": "[U26C U29C C38U U85A]", "self-cleavage": 0.32}
{"variant": "UACGUAGGUGGUUUUCCCCUGAUAGCGCCAAGGGAGCCUGAAAGUUUGGACUGGGCAGAGCUCAACACAGCGUGGCAAAGUGGCUGUGGCUAGACUGCCUCUCUGGAUUCCUCGACACUCAGCAGGGCAUCUCUGAGAGAAAUGCC", "note": "[U26C U29C G35A G41A U115A]", "self-cleavage": 1.31}
{"variant": "UACGUAGGUGGUUUUCCCCUGAUAGCGCCAAGGGGGCCUGGAAGUCUGGACUGGGCAGAGCCCAACACAGCGUGGCAAAGUGGCUGUGGCUAGUCUGCCUCUCUGGAUUCCUCGUCACUCAGCAGGGCAUCUCUGAGAGAAAUGCC", "note": "[U26C U29C U46C U62C A94U]", "self-cleavage": 0.34}
{"variant": "UACGUAGGUGGUUUUCCCCUGAUAGCGCUAAGGGGGCCAGGAAGUUUGGACUGGGCGGAGCUCAACUCAGCGUGGCAAAGUGGCUGUGGCUAGACUGCCUCUCUGGAUUCCUCGUCGCUCAGCAGGGCAUCUCUGAGAGAAAUGCC", "note": "[U26C U39A A57G A67U A117G]", "self-cleavage": 0}
{"variant": "UACGUAGGUGGUUUUCCCCUGAUAGCGCUAAGGGGGCCAGGAAGUUUGGACUGGGCAGAGCUCAACACAGCGUGGCAAAGAGGCUGUGGCAAGACUGCCUCUCUGGAUUCCUCGUCACUCAGCAGGGCAUCUCUGAGAGAAAUGCC", "note": "[U26C U39A U81A U91A]", "self-cleavage": 0.78}
{"variant": "UACGUAGGUGGUUUUCCCCUGAUAGCGCUAAGGGGGCCCGGAAGUUUGGACUGGGCAGAGCUCUACACAGCGUGGCAAAGUGGCUGUGGCUGGACUGCCUCUCUGGAUUCCUCGUCACUCAGCAGGGCAUCUCUGAGAGAAAUGCC", "note": "[U26C U39C A64U A92G]", "self-cleavage": 0.13}
{"variant": "UACGUAGGUGGUUUUCCCCUGAUAGCGCUAAGGGGGCCCGGAAGUUUGGACUGGGCAGAGCUCAACACAGCGAGGCAAAGUGGCUGUGGCUAGACUGCCUCUCUGGAUUCCUCGUCGCUCAGCAGGGCAUCUCUGAGAGAAAUGCC", "note": "[U26C U39C U73A A117G]", "self-cleavage": 2.04}
{"variant": "UACGUAGGUGGUUUUCCCCUGAUAGCGCUAAGGGGGCCUGGAAGAUUGGACUGGGCAGGGCUCAACACAGCGUGGCAAAGUGGCUGUGGCUAGACUGCCUCUCUGGAUUCCUCGUCACUCAGCAGGGCAUCUCUGAGAGGAAUGCC", "note": "[U26C U45A A59G A140G]", "self-cleavage": 0.04}
{"variant": "UACGUAGGUGGUUUUCCCCUGAUAGCGCUAAGGGGGCCUGGAAGUAUGGACUGGGCAGAGCUCAACACAGCGUGGCAGAGUGGCUGUGGCUAGACUGCCUCUCUGGAUUCCUCGUCACUCAGCUGGGCAUCUCUGAGAGAAAUGCC", "note": "[U26C U46A A78G A124U]", "self-cleavage": 1.84}
{"variant": "UACGUAGGUGGUUUUCCCCUGAUAGCGCUAAGGGGGCCUGGAAGUCUGGACUGGGCAGAGCUCAACACAGCGUGGCAAAGUGGCUGUGGCUAGACUGCCUCUCUGGAUUCCUCGUCACUCAGCAGGGCAUCUCUGAGGGAAAUGCC", "note": "[U26C U46C A138G]", "self-cleavage": 0.57}
{"variant": "UACGUAGGUGGUUUUCCCCUGAUAGCGCUAAGGGGGCCUGGAAGUCUGGACUGGGCAGAGAUCAACACAGCGUAGCAAAGUGGCUGUGGCUAGACUGCCUCUCUGGAUUCCUCGUCACUCAGCAGGGCAUCUCCGAGAGAAAUGCC", "note": "[U26C U46C C61A G74A U134C]", "self-cleavage": 0}
{"variant": "UACGUAGGUGGUUUUCCCCUGAUAGCGCUAAGGGGGCCUGGAAGUCUUGACUGGGCAGGGCUCAACACAGCGUGGCAAAGUGGCUGUGGCUAGACUGCCUCUCUGGAUUCCUCGUCACUCAGCAGGGCAUCUCUGGGAGAAAUGCC", "note": "[U26C U46C G48U A59G A136G]", "self-cleavage": 0.07}
{"variant": "UACGUAGGUGGUUUUCCCCUGAUAGCGCUAAGGGGGCCUGGAAGUCUGGACUGGGCAGAGCUCAACACAGCGUGGCAAAGUGGCUGUGGCUAGACUGCCUCUCUGGACUCCUCGUCACUCAGCUGAGCAUCUCUGAGAGAAAUGCC", "note": "[U26C U46C U108C A124U G126A]", "self-cleavage": 1.53}
